# Measurements published in the supplement of paper PMC10037445.
# Over roughly 2,900 compounds, “NF-kB SEAP reporter activity, fold change vs agonist alone” has its median near 0.99; the highest 2% begin near 2.6. The list shows a part of the results.
# Assays:
# [1] = system: RAW-Dual; assay: NF-kB SEAP reporter activity, fold change vs agonist alone; cytotoxicity flag (confluency mask): cytotoxic (confluency <70% of control); higher = enhanced NF-kB activity
# How it was run: (§1)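 RAW-Dual macrophages were seeded in DMEM at 50,000 cells/well in 384-well plates, given 50 nL of library stock by pin tool, and given a PRR agonist 1 h later. Plates were held at 37 °C, 5% CO2 for 20 hours, after which supernatant was read for IRF by QuantiLuc luminescence and for NF-κB by QuantiBlue absorbance at 620 nm. Reporter activity is expressed as fold change over wells that received agonist alone. A well was called cytotoxic when IncuCyte confluency fell below 70% of agonist controls in both mask sets.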
# [2] = system: RAW-Dual; assay: NF-kB SEAP reporter activity, fold change vs agonist alone; higher = enhanced NF-kB activity; details: library stock concentration (final ~1000-fold dilution): 10 mM
# How it was run: as §1
# [3] = system: RAW-Dual; assay: NF-kB SEAP reporter activity, fold change vs agonist alone; cytotoxicity flag (confluency mask): not cytotoxic; higher = enhanced NF-kB activity
# How it was run: as §1
# [4] = agonist: ODN 1826 (TLR9) 0.5 ug/mL
# [5] = agonist: Pam2CSK4 (TLR2/6) 0.1 ug/mL
# [6] = agonist: Pam3CSK4 (TLR2/1) 0.1 ug/mL
# [7] = cytotoxicity flag (confluency mask): not cytotoxic, agonist: Imiquimod (TLR7) […]
# [8] = cytotoxicity flag (confluency mask): not cytotoxic, agonist: MPLA (TLR4) […]
smiles,measurement,setting,value
COc1cc(C2c3cc4c(cc3C(O)C3COC(=O)C23)OCO4)cc(OC)c1OC (configuration not stated) (library stock concentration (final ~1000-fold dilution): 10 mM),NF-kB SEAP reporter activity,[1]; agonist: LPS (TLR4) 0.1 ug/mL,5.49
same,NF-kB SEAP reporter activity,[1]; [4],2.81
same,NF-kB SEAP reporter activity,[1]; [5],1.6
same,NF-kB SEAP reporter activity,[1]; [6],2.18
COc1cc(C2c3cc4c(cc3C(O)C3COC(=O)C23)OCO4)cc(OC)c1OC (configuration not stated),NF-kB SEAP reporter activity,"[2]; cytotoxicity flag (confluency mask): cytotoxic (confluency <70% of control), agonist: Imiquimod (TLR7) […]",1.61
same,NF-kB SEAP reporter activity,"[2]; cytotoxicity flag (confluency mask): cytotoxic (confluency <70% of control), agonist: MPLA (TLR4) […]",1.92
CN1CCN(C(=O)COc2ccc(C34CC5CC(CC(C5)C3)C4)cc2)CC1,NF-kB SEAP reporter activity,[2]; [7],0.743
same,NF-kB SEAP reporter activity,[2]; [8],1.34
CN1CCN(C(=O)COc2ccc(C34CC5CC(CC(C5)C3)C4)cc2)CC1 (library stock concentration (final ~1000-fold dilution): 10 mM),NF-kB SEAP reporter activity,[3]; agonist: LPS (TLR4) 0.1 ug/mL,1.29
same,NF-kB SEAP reporter activity,[3]; [4],1.1
same,NF-kB SEAP reporter activity,[3]; [5],1.2
same,NF-kB SEAP reporter activity,[3]; [6],1.36
CC1CCC2(OC1)OC1CC3C4CC=C5CC(OC6OC(CO)C(OC7OC(C)C(O)C(O)C7O)C(O)C6OC6OC(C)C(O)C(O)C6O)CCC5(C)C4CCC3(C)C1C2C (configuration not stated) (library stock concentration (final ~1000-fold dilution): 10 mM),NF-kB SEAP reporter activity,[3]; agonist: LPS (TLR4) 0.1 ug/mL,0.601
same,NF-kB SEAP reporter activity,[3]; [4],0.957
same,NF-kB SEAP reporter activity,[3]; [5],1.27
same,NF-kB SEAP reporter activity,[3]; [6],0.998
CC1CCC2(OC1)OC1CC3C4CC=C5CC(OC6OC(CO)C(OC7OC(C)C(O)C(O)C7O)C(O)C6OC6OC(C)C(O)C(O)C6O)CCC5(C)C4CCC3(C)C1C2C (configuration not stated),NF-kB SEAP reporter activity,[2]; [7],1.02
same,NF-kB SEAP reporter activity,[2]; [8],0.906
CC(=O)OC1CN2CCC1CC2.Cl (configuration not stated),NF-kB SEAP reporter activity,[2]; [7],0.919
same,NF-kB SEAP reporter activity,[2]; [8],1.07
CC(=O)OC1CN2CCC1CC2.Cl (configuration not stated) (library stock concentration (final ~1000-fold dilution): 10 mM),NF-kB SEAP reporter activity,[3]; agonist: LPS (TLR4) 0.1 ug/mL,1.09
same,NF-kB SEAP reporter activity,[3]; [4],0.909
same,NF-kB SEAP reporter activity,[3]; [5],1.08
same,NF-kB SEAP reporter activity,[3]; [6],1.03
CCC1CN2CCC3(C(=O)Nc4ccccc43)C2CC1/C(=C\OC)C(=O)OC (configuration not stated) (library stock concentration (final ~1000-fold dilution): 10 mM),NF-kB SEAP reporter activity,[3]; agonist: LPS (TLR4) 0.1 ug/mL,1.1
same,NF-kB SEAP reporter activity,[3]; [4],0.873
same,NF-kB SEAP reporter activity,[3]; [5],0.87
same,NF-kB SEAP reporter activity,[3]; [6],0.852
CCC1CN2CCC3(C(=O)Nc4ccccc43)C2CC1/C(=C\OC)C(=O)OC (configuration not stated),NF-kB SEAP reporter activity,[2]; [7],0.907
same,NF-kB SEAP reporter activity,[2]; [8],1.25
Nc1ncnc2c1ccn2C1OC(C(O)c2ccccc2)C(O)C1O (configuration not stated),NF-kB SEAP reporter activity,[2]; [7],1.02
same,NF-kB SEAP reporter activity,[2]; [8],0.975
Nc1ncnc2c1ccn2C1OC(C(O)c2ccccc2)C(O)C1O (configuration not stated) (library stock concentration (final ~1000-fold dilution): 10 mM),NF-kB SEAP reporter activity,[3]; agonist: LPS (TLR4) 0.1 ug/mL,0.957
same,NF-kB SEAP reporter activity,[3]; [4],1.03
same,NF-kB SEAP reporter activity,[3]; [5],0.892
same,NF-kB SEAP reporter activity,[3]; [6],1.19
CCC(C(N)=O)N1CCCC1=O (configuration not stated) (library stock concentration (final ~1000-fold dilution): 10 mM),NF-kB SEAP reporter activity,[3]; agonist: LPS (TLR4) 0.1 ug/mL,1.06
same,NF-kB SEAP reporter activity,[3]; [4],0.879
same,NF-kB SEAP reporter activity,[3]; [5],0.99
same,NF-kB SEAP reporter activity,[3]; [6],1.06
CCC(C(N)=O)N1CCCC1=O (configuration not stated),NF-kB SEAP reporter activity,[2]; [7],1.02
same,NF-kB SEAP reporter activity,[2]; [8],0.971
CC[N+](C)(CC)CCOC(=O)C(O)(c1ccccc1)c1ccccc1,NF-kB SEAP reporter activity,[2]; [8],1.01
CC[N+](C)(CC)CCOC(=O)C(O)(c1ccccc1)c1ccccc1 (library stock concentration (final ~1000-fold dilution): 10 mM),NF-kB SEAP reporter activity,[3]; agonist: LPS (TLR4) 0.1 ug/mL,0.821
same,NF-kB SEAP reporter activity,[3]; [4],0.989
same,NF-kB SEAP reporter activity,[3]; [5],0.934
same,NF-kB SEAP reporter activity,[3]; [6],1.39
